Measurements reported in US5583155A, “6-amino-1,2-benzopyrones useful for treatment of viral diseases” (Octamer, Inc., priority 1994, dated 1996).

Tests used:
[1] = tested on: HIV (activated by HSV IE-110) in U937 cells; experiment: HIV growth activated by HSV IE110 in U937 cells (syncytium-forming assay); details: 3 mM, FIGS. 3 and 4
From the text: FIG. 3 illustrates the effect of the drug 6-ABP on HIV activation by cotransfection of HIV with HSV-IE 110 in macrophages (U937 cells). The rationale for taking this approach and the syncytium-forming assay are described in Example 3 with results shown in Table 2. For the purpose of determining the ability of 6-ABP to inhibit HIV growth activation, the duplicate cells cultures were used. In experiments 1 and 2, U937 cells were transfected with HSV IE-110 gene and, CMV IE gene and infected HIV. The viral HIV growth is shown to reach up to and above 2,500 SFU/ml in 4 days for U937 cells cotransfected with IE-110 and to about 1200 to 1400 SFU/ml between 4-8 days for U937 cotransfected with CMV IE. In experiment 3, U937 cells transfected with HSV IE-110 and infected with HIV were treated with 3 mM of 6-ABP. […]
In one series of experiments, the effect of HSV IE110 and CMV IE2 gene expression on HIV replication using the syncytium assay formation on MT2 cells that defines HIV growth was examined. […] HIV titers are expressed as syncytia forming units/ml.
Transfection was 24 hours before HIV infection. […] The SFU assay consists of the method of Harada described in Science, 299:563, (1985) modified according to Virology, 167:299 (1988) for direct microscopic quantitation of syncytia.

[2] = tested on: HIV (activated by CMV IE) in U937 cells; experiment: HIV growth activated by CMV IE in U937 cells; type: cell-based, HIV-1; details: FIG. 3

SMILES: Nc1ccc2oc(=O)ccc2c1 [6-ABP, 6-amino-1,2-benzopyrone]
- effect of drug addition post infection [1]: as effective as when cells were pre-treated
- effect on CMV-IE-activation of HIV [2]: CMV-IE-activation is also inhibited by the drug
